In article PMC8123419, “Effect of Posttranslational Modifications on the Structure and Activity of FTO Demethylase” (International Journal of Molecular Sciences, 2021):

Legend:
[1] = molecular target: the molecule itself; test: SAXS; 26 uM ^BESFTO in SAX1 buffer (HEPES/MES pH 7.0, 150 mM NaCl, 2-OG, Fe2+, 0.5 mM CaCl2); low-resolution bead model (~12-20 A)
[2] = molecular target: the molecule itself; test: MST; NT-647-NHS-labelled ^BESFTO titrated with unlabelled ^BESFTO; buffers MST1 (no cofactor), MST2 (Fe2+ only) or MST3 (2-OG only); room temperature; dimer to monomers
[3] = molecular target: the molecule itself; test: MST; NT-647-NHS-labelled FTO titrated with unlabelled FTO; MST4 buffer: 50 mM MES pH 6.1, 150 mM NaCl, 0.05% TWEEN 20, 2 mM ascorbic acid, 1 mM 2-OG, 0.5 mM Fe2+ (holo); room temperature; dimer to monomers

B1: FTO protein expressed in baculovirus expression system (^BESFTO), N-terminally His-tagged human FTO (enzyme)
chain: not shown
modifications: phosphoserine at S184, S256 and S260, partial (extent estimated at 3% for S184, 37% for S256, 19% for S260)
notes: carries a spontaneous S246G replacement; A mixture of forms with zero (dominant) to three phosphoserines; In MST one copy was labelled on lysines with NT-647-NHS and titrated with unlabelled protein; also called ^BSEFTO; source: Sf21 insect cells, recombinant baculovirus, purified (Ni-charged resin, size-exclusion chromatography); not shown: His tag, N-terminal, kept
B1 was tested, and the “stoichiometry N” value [1] was 2, the Kd [2] was 340 nM and the Kd [3] was 1990 nM.
